Experimental data published in the antibiotic and cytotoxicity screens of Wong et al. (2023).
Some of the results follow.

Assays:
HSkMC = human skeletal muscle cells; experiment: cytotoxicity call (relative viability < 0.9); settings: 10 µM
HepG2 = experiment: cytotoxicity call (relative viability < 0.9); settings: 10 µM
S. aureus RN4220 = experiment: growth inhibition call (relative growth <= 0.2); settings: 50 µM

SMILES | cytotoxicity call (HSkMC) | cytotoxicity call (HepG2) | growth inhibition call (S. aureus RN4220)
C[C@@H]1CN([C@H](C)CO)C(=O)c2c(c3ccccc3n2C)-c2ccccc2CO[C@@H]1CN(C)Cc1ccc(-c2ccccc2)cc1 | inactive | inactive | inactive
CC(=O)OC(C)C[N+](C)(C)C.[Cl-] (centres undefined) | inactive | active | inactive
C[C@@H]1CN([C@@H](C)CO)C(=O)CCCn2cc(nn2)CO[C@@H]1CN(C)S(=O)(=O)c1ccc(Oc2ccccc2)cc1 | inactive | inactive | inactive
Cc1ccc(S(=O)(=O)N(C)C[C@@H]2Oc3ccc(NC(=O)CCCN(C)C)cc3CC(=O)N([C@@H](C)CO)C[C@H]2C)cc1 | inactive | inactive | inactive
C[C@H](CO)N1C[C@H](C)[C@H](CN(C)C(=O)Nc2cccc3ccccc23)Oc2ncc(-c3cccc(C(F)(F)F)c3)cc2C1=O | inactive | inactive | inactive
C[C@H]1CN([C@@H](C)CO)C(=O)Cc2cc(NS(=O)(=O)c3cn(C)cn3)ccc2O[C@H]1CN(C)Cc1ccncc1 | inactive | inactive | inactive
C[C@H](CO)N1C[C@H](C)[C@H](CN(C)Cc2ccncc2)Oc2c(NC(=O)c3cnccn3)cccc2C1=O | inactive | inactive | inactive
O=C1O[C@H](c2ccccc2)[C@H](c2ccccc2)N2[C@H]1[C@@H](C(=O)Nc1nc3ccccc3s1)[C@]1(C(=O)Nc3ccc(C#CC4(O)CCCCCC4)cc31)[C@H]2c1ccccc1OCCO | inactive | inactive | inactive
C[N+](C)(C)CCCCCC[N+](C)(C)C.[Br-].[Br-] | inactive | inactive | inactive
O=C(Nc1ccc2c(c1)[C@H]1C[C@@H](CC(=O)N3CCc4ccccc4C3)O[C@@H](CO)[C@H]1O2)C1CCOCC1 | inactive | inactive | inactive
C[C@@H]1CCCCO[C@@H](CN(C)Cc2ccc(C(=O)Nc3ccccc3N)cc2)[C@@H](C)CN([C@H](C)CO)C(=O)c2cc(NC(=O)c3ccncc3)ccc2O1 | inactive | inactive | inactive
C[C@@H]1CCCCO[C@H](CN(C)Cc2ccncc2)[C@H](C)CN([C@H](C)CO)C(=O)c2cc(NC(=O)NC3CCCCC3)ccc2O1 | inactive | inactive | inactive
C[C@@H]1CN([C@@H](C)CO)S(=O)(=O)c2ccc(Br)cc2O[C@H]1CN(C)CC1CCOCC1 | inactive | inactive | inactive
NC(=CS(=O)(=O)Cc1ccc(F)cc1)NO | inactive | active | inactive
COCC(=O)Nc1ccc2c(c1)C(=O)N(C)C[C@@H](OC)[C@H](C)CN(C(=O)Nc1ccccc1F)[C@H](C)CO2 | inactive | inactive | inactive
Cc1noc(C)c1S(=O)(=O)N(C)C[C@@H]1OCCCC[C@@H](C)Oc2ccc(NC(=O)Nc3ccc(F)cc3)cc2C(=O)N([C@H](C)CO)C[C@@H]1C | inactive | inactive | inactive
COc1ccc(S(=O)(=O)Nc2ccc3c(c2)C(=O)N([C@H](C)CO)C[C@H](C)[C@@H](CN(C)C(=O)c2ccccc2)OCCCC[C@@H](C)O3)cc1 | inactive | inactive | inactive
C[C@H]1CCCCO[C@H](CN(C)Cc2ccc(C(=O)O)cc2)[C@@H](C)CN([C@@H](C)CO)C(=O)c2cc(NC(=O)Nc3ccc(F)cc3)ccc2O1 | inactive | inactive | inactive
C[C@@H]1CCCCO[C@@H](CN(C)C(=O)Cc2ccccc2)[C@H](C)CN([C@H](C)CO)C(=O)c2cc(NC(=O)Cc3ccccc3)ccc2O1 | inactive | inactive | inactive
C[C@H]1CNCCO1 | inactive | inactive | inactive

SMILES | cytotoxicity call (HSkMC) | cytotoxicity call (HepG2) | growth inhibition call (S. aureus RN4220)
C[C@@H]1CN([C@H](C)CO)C(=O)c2cc(NC(=O)Nc3ccc(C(F)(F)F)cc3)ccc2O[C@@H]1CN(C)C(=O)Nc1ccc(F)cc1 | active | active | inactive
COc1cc2ncnc(Oc3cccc(NC(=O)Nc4cc(C(C)(C)C(F)(F)F)on4)c3)c2cc1OC | inactive | inactive | inactive
Cc1[nH]c(=S)c(C#N)c(C)c1Cc1ccc(Cl)cc1Cl | inactive | inactive | inactive
C[C@@H]1CCCCO[C@H](CN(C)Cc2ccc(C(=O)O)cc2)[C@@H](C)CN([C@@H](C)CO)C(=O)c2cc(NC(=O)CCC(F)(F)F)ccc2O1 | inactive | inactive | inactive
C[C@@H]1CCCCO[C@H](CN(C)C(=O)Cc2ccccc2)[C@@H](C)CN([C@@H](C)CO)C(=O)c2cc(NC(=O)c3ccccc3)ccc2O1 | inactive | inactive | inactive
C[C@@H]1CN([C@H](C)CO)C(=O)c2cc(-c3cccc(C#N)c3)cnc2O[C@H]1CN(C)C(=O)c1cnccn1 | inactive | inactive | inactive
Nc1ncnc2c1nc(Br)n2[C@@H]1O[C@@H]2COP(=O)(O)O[C@H]2[C@H]1O | inactive | inactive | inactive
Cc1noc(C)c1NC(=O)N(C)C[C@@H]1Oc2ccc(NC(=O)CCN3CCOCC3)cc2CC(=O)N([C@H](C)CO)C[C@@H]1C | inactive | inactive | inactive
NCc1ccc(-n2cncn2)cc1 | inactive | inactive | inactive
CCS(=O)(=O)NCC[C@H]1CC[C@@H](NC(=O)Cc2ccccn2)[C@H](CO)O1 | inactive | inactive | inactive
C[C@@H]1CN([C@H](C)CO)C(=O)Cc2cc(NC(=O)Nc3ccc4c(c3)OCO4)ccc2O[C@@H]1CN(C)S(C)(=O)=O | inactive | inactive | inactive
CN(C)CCCNC(=O)C[C@H]1CC[C@H]2[C@@H](COC[C@@H](O)CN2C(=O)c2cc(Cl)cc(Cl)c2)O1 | inactive | inactive | inactive
C/C=C/c1ccc2c(c1)O[C@H](CN(C)Cc1ccc(C(=O)O)cc1)[C@H](C)CN([C@@H](C)CO)S2(=O)=O | inactive | inactive | inactive
O=C(C[C@@H]1CC[C@@H]2[C@H](COC[C@@H](O)CN2C(=O)Nc2ccc3c(c2)OCO3)O1)N1CCN(c2ccccc2)CC1 | inactive | inactive | inactive
COc1ccc(NC(=O)N(C)C[C@H]2Oc3ccc(NC(=O)CCN4CCOCC4)cc3C(=O)N([C@H](C)CO)C[C@@H]2C)cc1 | inactive | inactive | inactive
CCS(=O)(=O)N1C[C@]2(CN(Cc3ccc4c(c3)OCO4)[C@@H](CO)c3c2c2ccc(cc2n3C)OC)C1 | inactive | inactive | inactive
COc1cccc(S(=O)(=O)N(C)C[C@@H]2Oc3cc(C4=CCCC4)ccc3S(=O)(=O)N([C@@H](C)CO)C[C@@H]2C)c1 | inactive | inactive | inactive
C[C@@H]1CN([C@@H](C)CO)C(=O)Cc2cc(NS(=O)(=O)c3ccc(Cl)cc3)ccc2O[C@@H]1CN(C)C | inactive | inactive | inactive
C[C@@H]1CN([C@@H](C)CO)C(=O)c2cc(NC(=O)Nc3ccc(C(F)(F)F)cc3)ccc2O[C@@H]1CN(C)S(=O)(=O)c1ccc(Cl)cc1 | active | active | inactive
CC(C)NC(=O)N(C)C[C@@H]1Oc2c(NC(=O)NC3CCCCC3)cccc2C(=O)N([C@H](C)CO)C[C@H]1C | inactive | inactive | inactive

SMILES | cytotoxicity call (HSkMC) | cytotoxicity call (HepG2) | growth inhibition call (S. aureus RN4220)
C[C@H]1CN([C@@H](C)CO)C(=O)c2cccc(NC(=O)C3CCOCC3)c2O[C@H]1CN(C)S(=O)(=O)c1cccs1 | inactive | inactive | inactive
N#Cc1ncccn1 | inactive | inactive | inactive
C[C@H]1CCCCO[C@H](CN(C)Cc2ccccc2)[C@@H](C)CN([C@@H](C)CO)C(=O)c2cc(NC(=O)c3ccncc3)ccc2O1 | inactive | inactive | inactive
C[C@@H]1CCCCO[C@@H](CN(C)Cc2ccc(Cl)c(Cl)c2)[C@@H](C)CN([C@H](C)CO)C(=O)c2cc(NC(=O)CCC(F)(F)F)ccc2O1 | inactive | inactive | inactive
C[C@@H]1CN([C@H](C)CO)S(=O)(=O)c2ccc(C#Cc3cccnc3)cc2O[C@H]1CN(C)CC1CCOCC1 | inactive | inactive | inactive
CSc1c(-c2ccc(Cl)cc2)[nH]c2ccccc12 | inactive | active | active
COc1ccc(NC(=O)Nc2ccc3c(c2)C(=O)N([C@@H](C)CO)C[C@@H](C)[C@@H](CN(C)Cc2ccncc2)OCCCC[C@@H](C)O3)cc1 | inactive | inactive | inactive
CN(C)c1nc(N(C)C)nc(N(C)C)n1 | inactive | inactive | inactive
S=c1[nH]cnc2nc[nH]c12 | inactive | active | inactive
CC(C)(C)c1cc(NC(=O)Nc2ccc(-c3cn4c(n3)sc3cc(OCCN5CCOCC5)ccc34)cc2)no1 | active | active | inactive
COc1ccc(CCN(C)CCCOc2ccc(S(=O)(=O)c3c(C(C)C)cn4ccccc34)cc2)cc1OC | active | active | inactive
C[C@@H]1CCCCO[C@H](CN(C)C(=O)C2CCCCC2)[C@H](C)CN([C@@H](C)CO)C(=O)c2cc(NC(=O)Nc3ccc(C(F)(F)F)cc3)ccc2O1 | inactive | inactive | inactive
Nc1nc2c(s1)COCC2 | inactive | inactive | inactive
C[C@@H]1CCCCO[C@H](CN(C)C(=O)NC2CCCCC2)[C@H](C)CN([C@@H](C)CO)C(=O)c2cc(NC(=O)c3ccncc3)ccc2O1 | inactive | inactive | inactive
C[C@@H]1CN([C@H](C)CO)C(=O)c2cccc(NC(=O)C3CCOCC3)c2O[C@@H]1CN(C)S(=O)(=O)c1ccc(F)cc1 | inactive | inactive | inactive
CO[C@@H]1CN(C)C(=O)c2cc(NS(=O)(=O)c3cn(C)cn3)ccc2OC[C@@H](C)N(CCC(F)(F)F)C[C@@H]1C | inactive | inactive | inactive
Cn1nccc1CO | inactive | inactive | inactive
C[C@@H]1CCCCO[C@H](CN(C)Cc2ccc3c(c2)OCO3)[C@H](C)CN([C@@H](C)CO)C(=O)c2cc(NC(=O)Nc3ccc(C(F)(F)F)cc3)ccc2O1 | active | active | inactive
